Where “and” joins values, the source holds several entries; their conditions need not be identical. Equal values may be shown once. This is one part of the list. Many values rest on one well or one pass, so single values are uncertain.
Columns and labels:
[1] = system: SARS-CoV-2 nsp3 SARS-unique domain core (SUD-core, nsp3 residues 413-676); assay: dissociation rate constant koff (BLI); higher = faster dissociation; conditions: 100 µM; 25 °C
[2] = system: SARS-CoV-2 nsp3 SARS-unique domain core (SUD-core, nsp3 residues 413-676); assay: apparent dissociation constant Kd (single-concentration BLI fit); higher = weaker binding; conditions: 100 µM; 25 °C

| Structure (SMILES) | dissociation rate constant koff [1] | apparent dissociation constant Kd [2] |
| --- | --- | --- |
| C=CC(=O)Nc1ccc2ncnc(Nc3ccc(OCc4cccc(F)c4)c(Cl)c3)c2c1 | 0.305 s⁻¹ | 3420 µM |
| CN1CCN(c2nc(C3=C(c4c[nH]c5ccccc45)C(=O)NC3=O)c3ccccc3n2)CC1 | 0.976 s⁻¹ | 1020 µM |
| NC(=O)c1ncn([C@@H]2O[C@H](CO)[C@@H](O)[C@H]2O)c1O | 0.0126 s⁻¹ | 168 µM |
| Nc1ncnc2c1c(-c1ccc(Oc3ccccc3)cc1)cn2C1CCCC1 | 0.0212 s⁻¹ | 132 µM |
| CCN1CCN(C(=O)Cc2ccc(Nc3ncc(F)c(Nc4ccc(C(=O)Nc5ccccc5Cl)cc4)n3)cc2)CC1 | 0.00547 s⁻¹ | 40.6 µM |
| C=CC(=O)N1CCC(Oc2cc3c(Nc4ccc(Cl)c(Cl)c4F)ncnc3cc2OC)CC1 | 0.12 s⁻¹ | 1560 µM |
| Oc1ccc(Nc2nc(-c3ccc(Cl)cc3)cs2)cc1 | 0.00729 s⁻¹ | 40.3 µM |
| Nc1n[nH]c2cc(-c3ccc(=O)n(Cc4cccc(Cl)c4)c3)ccc12 | 0.079 s⁻¹ | 163 µM |
| O=c1ccn([C@H]2C[C@H](O)[C@@H](CO)O2)c(=O)[nH]1 | 0.00957 s⁻¹ | 63.5 µM |
| CN1CC[C@H](c2c(O)cc(O)c3c(=O)cc(-c4ccccc4Cl)oc23)[C@H](O)C1 | 0.0895 s⁻¹ | 174 µM |
| Cc1c(-c2ccc(C(N)=O)c3[nH]c4cc(C(C)(C)O)ccc4c23)cccc1-n1cnc2ccccc2c1=O | 0.111 s⁻¹ | 4000 µM |
| O=C(NC1CCOCC1)c1ccc(-c2cc(-c3cn[nH]c3-c3ccccn3)ccn2)cc1 | 0.00436 s⁻¹ | 6.98 µM |
| c1cncc(CN2CCC(n3ncc4c(N5CCOCC5)nc(-c5ccc6[nH]ccc6c5)nc43)CC2)c1 | 0.182 s⁻¹ | 3390 µM |
| Nc1nc2c(ncn2[C@H]2C[C@H](O)[C@@H](CO)O2)c(=O)[nH]1 | 0.00883 s⁻¹ | 41.7 µM |
| COc1cc2c(Oc3ccc4[nH]c(C)cc4c3F)ncnc2cc1OCCCN1CCCC1 | 0.0313 s⁻¹ | 345 µM |
| O=c1ccn([C@H]2O[C@@H](CO)[C@H](O)[C@@H]2O)c(=O)[nH]1 | 0.0198 s⁻¹ | 468 µM |
| CCc1c(C(=O)NNC(=O)[C@@H](O)c2cc(F)cc(F)c2)ccc(O)c1C | 0.947 s⁻¹ | 956 µM |
| CCCc1cc(=O)[nH]c(=S)[nH]1 | 0.0134 s⁻¹ | 67.4 µM |
| C=CC(=O)N1CCC(C2CCNc3c(C(N)=O)c(-c4ccc(Oc5ccccc5)cc4)nn32)CC1 (configuration not stated) | 1.21 s⁻¹ | 1470 µM |
| O=c1[nH]ccc2nc(-c3ccc(CN4CCC(c5nc(-c6ccccn6)n[nH]5)CC4)cc3)c(-c3ccccc3)cc12 | 0.0103 s⁻¹ | 22.1 µM |

| Structure (SMILES) | dissociation rate constant koff [1] | apparent dissociation constant Kd [2] |
| --- | --- | --- |
| CCN1C(C)(C)CC(Oc2ccc(C(=O)Nc3ccc(NC(=O)Nc4cc(C(C)(C)C)on4)cc3)nc2)CC1(C)C | 0.0418 s⁻¹ | 20.6 µM |
| NC(=O)C1=CN([C@@H]2O[C@H](COP(=O)(O)OP(=O)(O)OC[C@H]3O[C@@H](n4cnc5c(N)ncnc54)[C@H](OP(=O)(O)O)[C@@H]3O)[C@@H](O)[C@H]2O)C=CC1.NC1CCCCC1.NC1CCCCC1.NC1CCCCC1.NC1CCCCC1 | 0.0139 s⁻¹ | 61.5 µM |
| CN1CCN(c2ccc3nc(-c4c(N)c5c(F)cccc5[nH]c4=O)[nH]c3c2)CC1 | 0.0135 s⁻¹ | 40.5 µM |
| Cc1cn([C@@H]2C[C@@H](O)[C@H](CO)O2)c(=O)[nH]c1=O | 0.00987 s⁻¹ | 95.4 µM |
| COc1cccc(OCCCN)c1-c1cc(Nc2cnc(C#N)cn2)n[nH]1 | 0.0355 s⁻¹ | 14.8 µM |
| Nc1ncnc2c1c(-c1cccc(OCc3ccccc3)c1)cn2C1CC(CN2CCC2)C1 (configuration not stated) |  | 22.5 µM |
| CC[C@@H](N)CNc1ccnc(-c2cc(-c3cnn(C)c3)ccc2O)n1 | 0.0361 s⁻¹ | 25.6 µM |
| CC(C)(O)CNc1ncc(-c2ccnc(Nc3ccnc(Cl)c3)n2)c(CC2CC2)n1 | 0.46 s⁻¹ | 2770 µM |
| C[C@H](Nc1ncnc2nc[nH]c12)c1cc2cccc(Cl)c2c(=O)n1-c1ccccc1 | 1.26 s⁻¹ | 2110 µM |
| O=c1[nH]cnc2c1ncn2[C@@H]1O[C@H](CO)[C@@H](O)[C@H]1O | 0.0139 s⁻¹ | 148 µM |
| NC(=O)c1ccc[n+]([C@@H]2O[C@H](COP(=O)([O-])OP(=O)(O)OC[C@H]3O[C@@H](n4cnc5c(N)ncnc54)[C@H](O)[C@@H]3O)[C@@H](O)[C@H]2O)c1 | 0.0155 s⁻¹ | 128 µM |
| Cc1nc(-c2cnn(C)c2)nc2c1[nH]c1ncc(-c3ccc(N4CCN(C)CC4)cc3)cc12 | 0.401 s⁻¹ | 379 µM |
| CC(C)(C)c1cnc(CSc2cnc(NC(=O)C3CCNCC3)s2)o1 | 13.1 s⁻¹ | 138 µM |
| COc1ccc(Cl)cc1NC(=O)Nc1cc(C)nc2ccccc12 | 0.0188 s⁻¹ | 146 µM |
| COc1ccc(C(OC[C@H]2O[C@@H](n3ccc(NC(=O)c4ccccc4)nc3=O)C[C@@H]2O)(c2ccccc2)c2ccc(OC)cc2)cc1 | 0.0135 s⁻¹ | 84.3 µM |
| C=CC(=O)Nc1cc2c(Nc3ccc(F)c(Cl)c3)ncnc2cc1OCCCN1CCOCC1 | 0.181 s⁻¹ | 3470 µM |
| Cn1cc(-c2cnn3c(N)c(Br)c([C@@H]4CCCNC4)nc23)cn1 | 0.107 s⁻¹ | 83.5 µM |
| C=CC(=O)N1CCC(CNc2ncnc(N)c2-c2ccc(Oc3ccccc3)cc2)CC1 | 0.417 s⁻¹ | 393 µM |
| Nc1ncnc2c1ncn2[C@@H]1O[C@H](COP(=O)(O)O)[C@@H](O)[C@H]1O | 0.0253 s⁻¹ and 0.0285 s⁻¹ | 103 µM and 265 µM |
